{"source": "PubChem BioAssay AID445", "about": "(National Center for Advancing Translational Sciences (NCATS), 2006)", "note": "The campaign covered roughly 110,000 compounds. About 40 (0.04%) were called active. The inconclusive results got no clear call from the source; some entries with a clear call stand among them for comparison. Calls follow the shape of the dose curve; as a rule, active = well fitted curve in the direction sought with a large enough effect in the signal ratio (not every such curve was filed as active); inconclusive = small, poorly fitted or top-dose-only effect, or a change in a side signal; inactive = flat fitted curve, though single readings scatter; the % refers to the signal ratio. Potencies beside an inconclusive call are fits to weak or partial responses and may not hold up. Potency is read from the fitted curve at half-maximal effect.", "data": [{"experiment": "IkB Signaling;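 as to IkBa stabilization activation: 0% = basal untreated cells and 100% = reference inhibitor full response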", "details": "ABC-DLBCL IkBa-CBG/CBR dual luciferase ratio (green luciferase fused to IkBa over red control in OCI-Ly3 lymphoma cells), 4 h; IkBa stabilization activation: at 57.1 µM (top of the series), scaled: untreated 0%, proteasome inhibitor 100% unless noted", "in_short": "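Curves were fitted separately to fusion (green), unfused (red) and ratio luminescence, then classed by r2, magnitude and activity. Cells: OCI-Ly3, 4 h compound plus doxycycline at 37C; 10 uM MG-132 defined full response.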", "values": [{"compound": "COc1ccc(C(=O)COC(=O)CCCn2c(=O)oc3ccccc32)cc1", "IkBa stabilization activation": "inconclusive: 5.41% [signal inhibitor]"}, {"compound": "Cc1ccc2nc3c(cc(C(=O)NCc4cccnc4)c(=N)n3C(C)C)c(=O)n2c1", "IkBa stabilization activation": "inactive: 1.38%"}, {"compound": "Cc1ccc(NC(=O)c2ccccc2O)cc1", "IkBa stabilization activation": "inconclusive: 8.7% [signal inhibitor]"}, {"compound": "CC(=O)N1CCCc2cc(S(=O)(=O)N3CCCC(C(=O)N4CCN(c5ccccc5)CC4)C3)ccc21", "note": "(centres undefined)", "IkBa stabilization activation": "inconclusive: 5.43% [signal inhibitor]"}, {"compound": "COc1ccc(CNC(=O)c2cc3cc(OC)ccc3oc2=O)cc1", "IkBa stabilization activation": "inactive: -2.11%"}, {"compound": "Clc1cccc(Cl)c1Cn1cnc2c(N3CCCCCC3)ncnc21", "IkBa stabilization activation": "inactive: 0.348%"}, {"compound": "Cc1ccc(-c2ccc(=O)n(CC(=O)NCCc3ccccc3)n2)cc1", "IkBa stabilization activation": "inconclusive: -1.17% [signal inhibitor]"}, {"compound": "O=S(=O)(NCCc1csc2nc(-c3ccccc3)nn12)c1cc(F)ccc1F", "IkBa stabilization activation": "inconclusive: 1.37% [signal inhibitor]"}, {"compound": "Cc1ccc(NC(=O)C(=O)NCC(c2cccnc2)N2CCN(Cc3ccccc3)CC2)cc1F", "note": "(centres undefined)", "IkBa stabilization activation": "inconclusive: 1.85% [signal inhibitor]"}, {"compound": "Cc1cccc(/C=C/c2onc(C)c2S(=O)(=O)N2CCC(C(=O)N3CCCCC3)CC2)c1", "IkBa stabilization activation": "inconclusive: 2.58% [signal inhibitor]"}, {"compound": "COc1ccc(-c2[nH]c(-c3ccc(Cl)cc3)nc2SCC(=O)NCC2CCCO2)cc1", "note": "(centres undefined)", "IkBa stabilization activation": "inconclusive: 2.97% [signal inhibitor]"}, {"compound": "CCc1ccccc1NS(=O)(=O)c1ccc2[nH]cc(C(=O)N(CC)Cc3ccccc3)c(=O)c2c1", "IkBa stabilization activation": "inconclusive: 6.77% [signal inhibitor]"}, {"compound": "Cc1ccc(C)c(N2CCN(S(=O)(=O)c3ccc4c(c3)C(C(C)C)C(=O)N4)CC2)c1", "note": "(centres undefined)", "IkBa stabilization activation": "inconclusive: -6.72% [signal inhibitor]"}, {"compound": "Cc1ccc2c(c1)N(CC(=O)NCCN1CCOCC1)C(=O)CO2", "IkBa stabilization activation": "inactive: 3.42%"}, {"compound": "CCc1ccc(C2CC(=O)c3c([nH]c(C(=O)OC4CCCC4)c3C)C2)cc1", "note": "(centres undefined)", "IkBa stabilization activation": "inactive: 0.0333%"}, {"compound": "COc1cccc(-c2nc(CS(=O)(=O)CC(=O)N3CCN(c4cc(C)ccc4C)CC3)c(C)o2)c1", "IkBa stabilization activation": "inconclusive: 7.52% [signal inhibitor]"}, {"compound": "COc1ccc(C2NC(=O)N(C)C3=C2C(=O)N(c2ccc(C(=O)O)cc2)C3)cc1", "note": "(centres undefined)", "IkBa stabilization activation": "inactive: -0.8%"}, {"compound": "CCC(C(=O)N1CCN(c2cccc(Cl)c2)CC1)c1ccccc1", "note": "(centres undefined)", "IkBa stabilization activation": "inconclusive: -0.163% [signal inhibitor]"}, {"compound": "Cc1ccc2c(CNCc3ccc(C)o3)c(C(=O)O)n(Cc3ccccc3C)c2c1", "IkBa stabilization activation": "inconclusive: 0.374% [signal inhibitor]"}, {"compound": "COC(=O)c1ccccc1NC(=O)C1=CC(c2cccs2)=NS(=O)(=O)N1C", "IkBa stabilization activation": "inconclusive: 1.42% [signal inhibitor]"}, {"compound": "Cc1ccc(S(=O)(=O)c2nnn(-c3ccc(F)c(Cl)c3)c2N)cc1", "IkBa stabilization activation": "inconclusive: -0.845% [signal inhibitor]"}, {"compound": "CN(CCNC(=O)c1cc2c(=O)n(C)c3ccccc3c2n1C)Cc1ccccc1", "IkBa stabilization activation": "inactive: 1.78%"}, {"compound": "CCOc1ccc2nc(N3CCCC(C(=O)NCCc4ccc(OCC)c(OCC)c4)C3)sc2c1", "note": "(centres undefined)", "IkBa stabilization activation": "inconclusive: 4.95% [signal inhibitor]"}, {"compound": "Cc1cccc(C)c1Nc1c(-c2ccccn2)nc2c(C)cccn12", "IkBa stabilization activation": "inconclusive: 2.23% [signal inhibitor]"}, {"compound": "O[C@H](COc1ccccc1)CN1CCCCC1", "IkBa stabilization activation": "inactive: -1.25% [at 11.4 µM, scaled: untreated 0%, proteasome inhibitor 100%]"}, {"compound": "O=C(Cc1cccs1)NC1CC(=O)N(c2ccc(F)cc2)C1", "note": "(centres undefined)", "IkBa stabilization activation": "inconclusive: 6.65% [signal activator]"}, {"compound": "COc1ccc(-c2csc3ncnc(Nc4cccc(OC)c4)c23)cc1", "IkBa stabilization activation": "inconclusive: -0.739% [signal inhibitor]"}, {"compound": "CSc1cccc(NC(=O)Nc2ccccc2OCc2cc(=O)n3cc(C)ccc3n2)c1", "IkBa stabilization activation": "inconclusive: 5.47% [signal inhibitor]"}, {"compound": "O=C(c1cc2ccccc2oc1=O)N(Cc1ccc2c(c1)OCO2)Cc1ccco1", "IkBa stabilization activation": "inconclusive: 1.85% [signal inhibitor]"}, {"compound": "CCc1ccc(S(=O)(=O)Nc2ccc3c(c2)n(C)c(=O)c(=O)n3C)cc1", "IkBa stabilization activation": "inactive: 0.0669%"}, {"compound": "CCC(=O)N1CCc2cc(Br)cc(S(=O)(=O)CCC(=O)N3CCN(c4cccc(C)c4)C(C)C3)c21", "note": "(centres undefined)", "IkBa stabilization activation": "inconclusive: 2.24% [signal inhibitor]"}, {"compound": "Cc1cc(N)c2cc(NC(=O)Nc3ccc4nc(C)cc(N)c4c3)ccc2n1", "IkBa stabilization activation": "inactive: 1.4% [at 11.4 µM, scaled: untreated 0%, proteasome inhibitor 100%]"}, {"compound": "Cc1ccc2c(c1)C(c1ccc(F)cc1)N(C(=O)c1ccc(S(=O)(=O)N3CCCCC3)cc1)CC(=O)N2", "note": "(centres undefined)", "IkBa stabilization activation": "inconclusive: 2.84% [signal inhibitor]"}, {"compound": "CC1=C(C(=O)OC2CCCCCCC2)C(c2cccc(O)c2)NC(=O)N1", "note": "(centres undefined)", "IkBa stabilization activation": "inconclusive: -0.39% [signal inhibitor]"}, {"compound": "COc1ccc(C)cc1NC(=O)C1CCCN(c2ncnc3onc(C)c23)C1", "note": "(centres undefined)", "IkBa stabilization activation": "inconclusive: -1.79% [signal inhibitor]"}, {"compound": "CCOC(=O)C1=C(CS(=O)(=O)c2ccc(F)c(C)c2)NC(=O)NC1c1ccccc1OC", "note": "(centres undefined)", "IkBa stabilization activation": "inconclusive: 0.251% [signal inhibitor]"}, {"compound": "CCCc1nnc(NC(=O)c2nc(SCC)ncc2Cl)s1", "IkBa stabilization activation": "inconclusive: 1.2% [signal inhibitor]"}, {"compound": "CCCCn1c(=O)n(-c2cc(OC)ccc2OC)c(=O)c2c3c(sc21)CN(C(C)=O)CC3", "IkBa stabilization activation": "inconclusive: 16.4% [signal inhibitor]"}, {"compound": "O=C(CC1N=C2c3ccccc3N=C(SCc3ccccc3Cl)N2C1=O)NCCc1ccccc1", "note": "(centres undefined)", "IkBa stabilization activation": "inconclusive: 4.82% [signal inhibitor]"}, {"compound": "CCOC(=O)c1c(C2COc3ccccc3O2)csc1NC(=O)c1ccco1", "note": "(centres undefined)", "IkBa stabilization activation": "inactive: 0.536%"}, {"compound": "CCOc1ccc(-n2nc3ccc(NC(=O)c4ccc(OC)c(Cl)c4)cc3n2)cc1", "IkBa stabilization activation": "inconclusive: -3.53% [signal inhibitor]"}, {"compound": "CCN=C(NCC)SC1CC(=O)N(c2cccc(OCC)c2)C1=O", "note": "(centres undefined)", "IkBa stabilization activation": "inconclusive: -1.56% [signal inhibitor]"}, {"compound": "Cc1ccc(Nc2c(-c3ccc(C)s3)nc3ccccn23)cc1", "IkBa stabilization activation": "inconclusive: 3.6% [signal inhibitor]"}, {"compound": "CC1CCc2sc3nc(NCc4ccco4)n4ncnc4c3c2C1", "note": "(centres undefined)", "IkBa stabilization activation": "inactive: -1.9%"}, {"compound": "COC(=O)c1cccc(NC2=NS(=O)(=O)c3ccccc32)c1", "IkBa stabilization activation": "inactive: -0.691%"}, {"compound": "Cc1cc(Cl)ccc1NC(=O)Cc1ccc(NC(=O)N2CCCCc3ccccc32)cc1", "IkBa stabilization activation": "inconclusive: 0.237% [signal inhibitor]"}, {"compound": "COc1ccc(C)cc1NC(=O)C1CCN(S(=O)(=O)c2cc(Br)cc3c2N(C(C)=O)CC3)CC1", "IkBa stabilization activation": "inconclusive: 3.68% [signal inhibitor]"}, {"compound": "Cc1nc2ccccn2c1-c1nnco1", "IkBa stabilization activation": "inactive: -0.241%"}, {"compound": "O=C(CSc1nnc(-c2ccc(Cl)cc2)o1)c1ccc([N+](=O)[O-])cc1", "IkBa stabilization activation": "inactive: -3.58%"}, {"compound": "CCc1ccc(C(=O)c2cn(CC(=O)Nc3cccc(OC)c3)c3cc4c(cc3c2=O)OCO4)cc1", "IkBa stabilization activation": "inconclusive: 4.86% [signal inhibitor]"}, {"compound": "CCn1c(SCc2c(F)cccc2Cl)nc(=O)c2c(C(=O)OC)cc(C3CC3)nc21", "IkBa stabilization activation": "inconclusive: -2.44% [signal inhibitor]"}, {"compound": "CC1Cc2ccccc2N1C(=O)CSc1nc2ccc(NC(=O)COc3ccccc3)cc2s1", "note": "(centres undefined)", "IkBa stabilization activation": "inactive: 0.999%"}, {"compound": "NCCCCCCNS(=O)(=O)c1ccc2c(Cl)cccc2c1", "IkBa stabilization activation": "inconclusive: 1.4% [signal inhibitor]"}, {"compound": "CCOC(=O)c1c(C)oc2nc(C)nc(NCC3CCN(Cc4ccc(C)cc4)CC3)c12", "IkBa stabilization activation": "inconclusive: 2.09% [signal inhibitor]"}, {"compound": "CC(C)(C)c1ccccc1NC(=O)c1ccco1", "IkBa stabilization activation": "inactive: -0.972%"}, {"compound": "CC(=O)N[C@@H]1CONC1=O", "IkBa stabilization activation": "inactive: -0.777% [at 11.4 µM, scaled: untreated 0%, proteasome inhibitor 100%]"}, {"compound": "Cc1nn(C)cc1CN(C)C(=O)c1cc(-c2ccccc2)nc2ccc(Br)cc12", "IkBa stabilization activation": "inconclusive: 9.22% [signal inhibitor]"}, {"compound": "O=C(Nc1cccc(C(F)(F)F)c1)c1cnn(-c2cccc(F)c2)c1C1CCNCC1", "IkBa stabilization activation": "inactive: 0.46%"}, {"compound": "CCOc1ccc(CCNC(=O)c2oc(=O)c3ccccc3c2-c2ccc(C)cc2)cc1OCC", "IkBa stabilization activation": "inconclusive: -0.932% [signal inhibitor]"}, {"compound": "CC(C)(C)c1ccc(C(=O)NCCc2csc(-c3ccc(Cl)cc3)n2)cc1", "IkBa stabilization activation": "inconclusive: -1.41% [signal inhibitor]"}, {"compound": "COc1ccc(C(=O)Nc2ccc(N(C)Cc3ccccc3)c(C(=O)O)c2)cc1", "IkBa stabilization activation": "inactive: -0.885%"}, {"compound": "Cc1cc(C)c2c(N)c(C(=O)Nc3nccs3)sc2n1", "IkBa stabilization activation": "inactive: 10.2%"}, {"compound": "CCOC(=O)Cn1c(=O)n(CC2CCCO2)c2nc(-c3ccccc3)nc(C(N)=O)c21", "note": "(centres undefined)", "IkBa stabilization activation": "inconclusive: 0.979% [signal inhibitor]"}, {"compound": "CCOC(=O)C1=C(CN2CCN(c3ccccc3OC)CC2)NC(=O)NC1c1ccccc1", "note": "(centres undefined)", "IkBa stabilization activation": "inconclusive: 0.382% [signal inhibitor]"}, {"compound": "O=C(CN1CCCN(Cc2ccccc2F)S1(=O)=O)Nc1ccc(F)c(Cl)c1", "IkBa stabilization activation": "inconclusive: 0.102% [signal inhibitor]"}, {"compound": "Cc1ccc(Nc2nc(C)c(CCC(C)C)c(=O)[nH]2)cc1", "IkBa stabilization activation": "inactive: 2.25%"}, {"compound": "CCc1cccc(C)c1NC(=O)Cn1nc(C)n2cccc2c1=O", "IkBa stabilization activation": "inconclusive: 9.16% [signal inhibitor]"}, {"compound": "COCC(C)NC(=O)CCS(=O)(=O)c1nc(-c2ccc(OC)cc2)cc(C(F)(F)F)n1", "note": "(centres undefined)", "Potency": "inconclusive: 6.31 µM [signal inhibitor, single point]"}, {"compound": "Nc1nc(-c2ccccc2)c(-c2ccccc2)c(-c2nc(N)nc(-c3ccccc3)c2-c2ccccc2)n1", "IkBa stabilization activation": "inactive: 0.899% [at 11.4 µM, scaled: untreated 0%, proteasome inhibitor 100%]"}]}]}
